About 200 (0.47%) of roughly 43,000 compounds were called active. Inconclusive results (about 12%) are left out. Calls come from the whole dose curve; as a rule, active = well fitted cell-killing curve with a large enough effect; inconclusive = small, poorly fitted or top-dose-only effect, or effect the other way; inactive = flat fitted curve, though single readings scatter. The list shows a part of the results.
assay: Cell viability qHTS assay in S16 Pmp22-F2sN cells; conditions: S16 Pmp22-F2sN Schwann cells viability, CellTiter-Glo, 24 h; series mostly up to 57.5 µM; activity change, negative = cytotoxicity: at the top concentration; note: nearly all actives have a fitted effect of over 65% in size
Summary of the method: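 S16 Pmp22-F2sN Schwann cells (500-1,000/well) in phenol-red-free DMEM with 10% FBS received 23 nL compound by pin tool for 24 h at 37 °C. Viability was then read as CellTiter-Glo luminescence after 15 min at room temperature.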
% is set by controls: 0 for no effect and ±100 for the full control effect.

| Compound | activity change, negative = cytotoxicity |
| --- | --- |
| Cc1cc(C)cc(OCC(=O)Nc2ccc(-c3nc4ncccc4o3)cc2C)c1 | inactive: 18.6% |
| CCc1nnc(SCc2nc(-c3ccccc3F)oc2C)c2cc3sccc3n12 | inactive: 4.93% |
| Cc1ccc(Cl)cc1N1CCN(C(=O)c2c(C)oc3ncnc(N4CCOCC4)c23)CC1 | inactive: -5.07% |
| O=C(CSc1nnc(-c2cccs2)o1)Oc1ccc(Cl)cc1 | inactive: 4.94% |
| CCCCNC(=O)C1CCCN(c2nnc(C)c3c(C)n(-c4ccc(Cl)cc4)nc23)C1 (centres undefined) | inactive: -4.77% |
| COc1cc2c(=O)c(S(=O)(=O)c3ccc(C)cc3)cn(Cc3cccc(C)c3)c2cc1OC | inactive: -6.49% |
| CC1CN(C(=O)N2CCC(C(=O)NCCC3=CCCCC3)CC2)c2ccccc2O1 (centres undefined) | inactive: 13% |
| CCOC(=O)C1(C)C=C(Nc2ccc(C)cc2)C(=O)N1c1ccccc1 (centres undefined) | inactive: -0.226% |
| CC(=O)c1ccc(NC(=O)CSc2nccn2Cc2ccco2)cc1 | inactive: 4.97% |
| CSc1cccc(NC(=O)C2CCN(S(=O)(=O)c3ccc4[nH]c(=O)ccc4c3)CC2)c1 | inactive: 20.4% |
| CCCC(=O)Nc1ccc(NC(=O)c2sc3ccccc3c2Cl)cc1 | inactive: 14% |
| COc1ccc(C(=O)N2CCN(C(=O)COc3ccc(Br)cc3)CC2)cc1OC | inactive: -3.41% |
| Cc1cc2c(cc1C)C(c1cccc(OC(C)C)c1)CC(=O)N2 (centres undefined) | inactive: 17.8% |
| CCCCN(C)CCCNC(=O)Cn1nc(CC)n2c(cc3sc(C)cc32)c1=O | inactive: 1.94% |
| COc1ccc(NC(=O)CN(c2cccc(C)c2C)S(=O)(=O)c2ccccc2)cc1OC | inactive: -1.33% |
| CCOC(=O)CSC1=Nc2ccccc2C2=NC(CCC(=O)NCc3ccccc3)C(=O)N12 (centres undefined) | inactive: 3.02% |
| Cc1ccc(CNC(=O)C(=O)NCC(c2cccs2)S(=O)(=O)c2cccs2)cc1 (centres undefined) | inactive: 10.3% |
| CC(C)(C)OC(=O)N1CCC(c2c(C(=O)Nc3ccc4c(c3)OCO4)cnn2-c2ccc(F)cc2F)CC1 | inactive: -20.5% |
| COc1ccc(NC(=O)/C(C#N)=C/c2ccc(C)o2)cc1 | inactive: -6.84% |
| CCc1ccc2occ(CC(=O)Nc3c(C(=O)Nc4ccc(Cl)cc4)oc4ccccc34)c2c1 | inactive: 0.0301% |
| CN(C)c1ccc(NC(=O)Cn2c(SCc3ccc(F)cc3)nc3cccnc32)cc1 | inactive: 0.529% |
| Cc1ccccc1Cn1c(=O)n(CCCCC(=O)NCCc2ccccc2)c(=O)c2ccccc21 | inactive: 19.6% |
| CCc1ccc(NC(=O)CSC2=Nc3ccccc3C3=NC(CC(=O)NCc4ccc5c(c4)OCO5)C(=O)N23)cc1 (centres undefined) | inactive: -14% |
| CCSc1nc2c([nH]c3ccccc32)c(=O)n1-c1ccc(OC)cc1 | inactive: 15.2% |

| Compound | activity change, negative = cytotoxicity |
| --- | --- |
| O=C(O)CCCC(=O)N1CCc2cc(S(=O)(=O)NCc3ccccc3)ccc21 | inactive: -5.28% |
| Cc1cccc(NC(=O)CCNS(=O)(=O)c2ccc3c(c2)CCCC(=O)N3)c1C | inactive: 13.2% |
| CCOC(=O)c1[nH]c2c(c1Cc1ccccc1)C(=O)CC(c1ccc(OC)cc1)C2 (centres undefined) | inactive: 0.654% |
| CC1CCCN(c2ncnc3c2nc2n3CCCCC2)C1 (centres undefined) | inactive: 0.407% |
| CN(C)c1ccc(CNc2nc(-c3ccco3)nn2S(C)(=O)=O)cc1 | inactive: -10.6% |
| c1coc(-c2nc3ccccn3c2Nc2ccc3c(c2)OCCO3)c1 | inactive: -2.23% |
| CCOc1ccc(NC(=O)CCS(=O)(=O)c2ccc3nc(C)sc3c2)cc1 | inactive: -1.15% |
| COc1ccc(-n2c(SCC(=O)N3CCCc4ccccc43)nc3c([nH]c4ccccc43)c2=O)cc1 | inactive: 3.4% |
| COc1ccc(-c2cn3c(n2)sc2cc(C(=O)Nc4ccccc4F)ccc23)cc1 | inactive: 16.9% |
| Cc1ccc(Cn2c(SCc3ccc(C(=O)NCCc4ccccc4)cc3)nc3ccncc32)cc1 | inactive: -26.2% |
| CCn1cc(S(=O)(=O)c2cccc(C)c2)c(=O)c2cc(F)c(N3CCCCC3C)cc21 (centres undefined) | inactive: 3.98% |
| COc1cc(CN2CCN(S(=O)(=O)c3ccc(NC(C)=O)cc3)CC2)cc(OC)c1OC | inactive: 1.74% |
| O=C1N(Cc2ccccc2Cl)c2ccccc2C1(O)c1c[nH]c2ccccc12 (centres undefined) | inactive: -23.4% |
| CC1=C(C(=O)OCC2CCCCC2)C(c2ccc(Cl)cc2)CC(=O)N1 (centres undefined) | inactive: 15.3% |
| COc1ccccc1NC(=O)c1oc2ccccc2c1NC(=O)COc1cccc(C)c1 | inactive: 14.1% |
| COc1ccc(Cl)cc1NC(=O)N(C)CCc1c(C)nn(C)c1C | inactive: -4.82% |
| CCOC(=O)c1sc2ccccc2c1S(=O)(=O)Nc1ccc(C(C)=O)cc1 | inactive: -1.37% |
| CSc1ncc(C(=O)Nc2ccc(C)c(Cl)c2)c(-c2ccccc2)n1 | inactive: -19.8% |
| CCc1ccc(N(CC)C(=O)Cn2nc(Cc3cccnc3)c3ccccc3c2=O)cc1 | inactive: 9.02% |
| CCOc1ccc(NC(=O)CSc2oc(-c3ccc(F)cc3)nc2S(=O)(=O)c2ccc(C)cc2)cc1 | inactive: 1.8% |
| COc1ccc(CNC(=O)Cn2ccc3cc(S(=O)(=O)N4CCCCC4)ccc32)cc1OC | inactive: -2.06% |
| Cc1ccc(-n2c(=O)c3c4c(sc3n(Cc3cc(=O)n5ccccc5n3)c2=O)CCC4)cc1C | inactive: -13% |
| Cc1ccc(CN(Cc2ccco2)C(=O)c2oc3cc(Br)ccc3c2C)cc1 | inactive: 1.99% |
| O=C(Nc1ccc(Br)cc1F)c1cc(S(=O)(=O)NC2CCCCC2)ccc1F | inactive: -3.6% |

| Compound | activity change, negative = cytotoxicity |
| --- | --- |
| Cc1nc2nc(NC(=O)c3ccc(C(C)(C)C)cc3)[nH]n2c(=O)c1Cc1ccccc1 | inactive: -2.14% |
| COc1ccc(-n2c(=O)c3c(c4cc(OC)ccc4n3C)n(Cc3cccc(C)c3)c2=O)cc1 | inactive: -7.29% |
| COc1ccc2c(c1)c(=O)c(S(=O)(=O)c1ccccc1)cn2CC(=O)Nc1ccc(C)c(Cl)c1 | inactive: 10.7% |
| COc1cccc(CNC(=O)Cn2nc(-c3ccc(Cl)cc3)ccc2=O)c1 | inactive: 20% |
| CC1=C(C(=O)Nc2ccc(C)cc2C)C(c2cccs2)n2nc(SCc3cccc(C)c3)nc2N1 (centres undefined) | inactive: 3.35% |
| CNC(=O)CSc1cn(CC(=O)N2CCCCCC2)c2ccccc12 | inactive: 0.177% |
| CCC(C(=O)Nc1cccc(-c2nc3cccnc3s2)c1C)c1ccccc1 (centres undefined) | inactive: 0.0119% |
| COc1ccc(-n2cc(C(=O)NCCc3cc(OC)ccc3OC)c3ccccc3c2=O)cc1 | inactive: 10.1% |
| CCOC(=O)c1c(C)[nH]c(C)c1S(=O)(=O)N1CCCC(C(=O)NCc2ccc(N(C)C)cc2)C1 (centres undefined) | inactive: -28.3% |
| CC(C)CC(=O)Nc1nnc(S(=O)(=O)N(C)Cc2ccc(Cl)cc2)s1 | inactive: 5.4% |
| CC(=O)Nc1nonc1-c1nnc(SCc2ccccc2F)n1C | inactive: -1.79% |
| CCc1ccccc1NS(=O)(=O)c1ccc2c(c1)CC(=O)N2 | inactive: 0.327% |
| CCCc1nn2c(=O)cc(COC(=O)c3ccccc3NC(=O)COc3ccccc3)nc2s1 | inactive: 8.76% |
| CCOC(=O)c1cc(S(=O)(=O)Nc2cc(F)ccc2C)[nH]n1 | inactive: -6.58% |
| COc1ccc(-c2cc(C(F)(F)F)n3nc(-c4ccccc4)cc3n2)cc1OC | inactive: 0.592% |
| CCc1ccc(NC(=O)Cn2c(=O)n(CCC(C)C)c(=O)c3cccnc32)cc1 | inactive: 6.39% |
| CCCCSc1nnc2n(-c3ccc(OC)cc3)c(=O)c3c4c(sc3n12)COC(C(C)C)C4 (centres undefined) | inactive: -20.4% |
| Cc1ccc(/C=C/c2onc(C)c2S(=O)(=O)N2CCC(C(=O)Nc3ccccc3C(F)(F)F)CC2)cc1 | inactive: 9.69% |
| CC(=O)c1ccc(N2CCN(c3ncnc4c3c(-c3ccccc3)cn4-c3ccc(Cl)cc3)CC2)cc1 | inactive: -1.7% |
| Cc1oc(-c2cccc(Cl)c2)nc1CS(=O)(=O)CC(=O)NC(C)CCc1ccccc1 (centres undefined) | inactive: 3.54% |
| CCCCN(CC)C(=O)c1nn(C)c2c1CSc1ccccc1-2 | inactive: -1.89% |
| CC(=O)c1cccc(NC(=O)CSc2nc(=O)n(Cc3ccco3)c3c2CCC3)c1 | inactive: -6.28% |
| O=C(CSc1ccc(-c2cccs2)nn1)Nc1ccccc1C(F)(F)F | inactive: -11.1% |
| Cc1ccccc1CNC(=O)C(C)N(c1ccccc1)S(C)(=O)=O (centres undefined) | inactive: 4.67% |

| Compound | activity change, negative = cytotoxicity |
| --- | --- |
| Cc1ccc(NC(=O)C2CCCN(C(=O)c3cnn(-c4ccc(F)cc4)c3-n3cccc3)C2)c(Cl)c1 (centres undefined) | inactive: -5.66% |
| CC1(C)O[C@H]2[C@@H](O1)[C@@H](C(=O)Nc1ccccc1C(F)(F)F)O[C@@H]1OC(C)(C)O[C@@H]12 | inactive: 27.2% |
| O=C(CCC1N=C2c3ccccc3N=C(SCc3ccc(F)cc3)N2C1=O)NCCc1ccccc1 (centres undefined) | inactive: 2.6% |
| CCOC(=O)N1CCN(C(=O)CN(c2ccccc2F)S(=O)(=O)c2ccc(C)cc2)CC1 | inactive: 18.1% |
| Cc1cc(N2CCC(C)CC2)nc2ccc(NC(=O)Cc3c(F)cccc3Cl)cc12 | inactive: 26% |
| Cc1ccc(Cn2cc(S(=O)(=O)c3cccc(Cl)c3)c(=O)c3cc(F)c(N4CCCCC4)cc32)cc1 | inactive: 8.15% |
| CCc1ccc(NC(=O)CN(c2ccc(Cl)cc2)S(=O)(=O)c2ccsc2C(=O)OC)cc1 | inactive: -25% |
| CCOc1ccc(NC(=O)c2c(NCc3cccc(OC)c3OC)sc3c2CCC3)cc1 | inactive: 11.7% |
| Nc1c(C(=O)Nc2ccccc2Cl)c2ccccn2c1C(=O)c1ccccc1 | inactive: -4.6% |
| COc1ccc(OC)c(CNC(=O)c2ccc3c(c2)c(C)c(C)n3Cc2ccc(Cl)cc2)c1 | inactive: -7.05% |
| Cc1ccc(C)c(CN2C(=O)C(O)(c3c(C)[nH]c4ccccc34)c3ccccc32)c1 (centres undefined) | inactive: -10.2% |
| CCOC(=O)c1noc2nc(C)n(CC(=O)NC(C)CC)c(=O)c12 (centres undefined) | inactive: -15.8% |
| O=C(NCc1cccs1)c1ccc2c(c1)N(Cc1cccc(F)c1)C(=O)c1ccccc1S2 | inactive: -0.375% |
| Cc1cc(C)cc(NC(=O)CSc2nc(=O)n(CCN3CCOCC3)c3c2CCC3)c1 | inactive: 9.62% |
| Cc1ccc(Cl)cc1NC(=O)CSc1nccn1C | inactive: 0.329% |
| COC(=O)c1c(NC(=O)Cc2coc3cc(C)ccc23)sc2c1CCC2 | inactive: -3.25% |
| CCOc1ccc(NS(=O)(=O)c2ccc(C(=O)N(C)C)s2)cc1 | inactive: -1.95% |
| O=C(c1cccc(Cl)c1)N1c2nc(-c3ccco3)nn2C2(CCCCC2)[C@@H]2CCCC[C@@H]21 | inactive: 3.68% |
| COc1ccc(CCNC(=O)CCCCn2c(=O)c3ccccc3n(CC(=O)Nc3c(C)cccc3C)c2=O)cc1OC | inactive: 16.1% |
| C#CCn1c(=NC(=O)c2ccc3c(c2)OCCO3)sc2cc(OC)c(OC)cc21 | inactive: 2.94% |
| O=C(CCSCc1cccc(Cl)c1)N1CCN(c2ccc(Cl)cc2)CC1 | inactive: 11.2% |
| Cc1ccccc1C(=O)N1CC(=O)Nc2ccc(Cl)cc2C1c1ccccc1 (centres undefined) | inactive: 1.11% |

— PubChem BioAssay AID1508642 (National Center for Advancing Translational Sciences (NCATS), 2021)
